# Laboratory results reported in patent US20250066451A1 (SWEDISH ORPHAN BIOVITRUM AB PUBL, published 2025).
# Changes are numbered by the printed parent chain. In names and notes the source's numbering stands.
# T1: Human IL-1R-I-Fc (Creative BioMart cat. no. IL1RI-771H) (human, UniProt P14778 18-332, limits assumed)
# T1 construct: Bought Fc fusion; also called hIL-1R-I-Fc; hIL-1RI-Fc; not shown: Fc part of the bought fusion
# T1 sequence (looked up): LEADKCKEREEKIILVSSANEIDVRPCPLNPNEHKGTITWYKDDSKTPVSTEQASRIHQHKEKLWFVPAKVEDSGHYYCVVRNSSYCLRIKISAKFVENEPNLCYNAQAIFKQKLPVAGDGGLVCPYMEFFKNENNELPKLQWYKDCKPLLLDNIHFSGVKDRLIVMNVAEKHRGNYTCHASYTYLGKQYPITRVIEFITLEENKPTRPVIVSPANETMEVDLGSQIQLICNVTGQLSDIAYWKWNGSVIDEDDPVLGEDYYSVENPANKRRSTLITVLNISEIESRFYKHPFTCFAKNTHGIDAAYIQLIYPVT
# T2: Human IL-1R-I-Fc (Creative BioMart cat. no. IL1RI-771H) (human, UniProt P14778 18-332, limits assumed)
# T2 construct: bought protein; also called hIL-1R-I-Fc; hIL-1RI-Fc
# T2 sequence (looked up): T1 sequence (looked up)
# B1: Z18838 (designed binder)
# chain: AQHDEALEVDAKYAKEVEEIQMEIFHLPNLTRKQYTAFIRKLLDDPSQSSELLSEAKKLNDSQAPKVDYVLAEAKVLANRELDKYGVSDYYKNLINNAKTVEGVKALIDEILAALPYVPG
# notes: Z-ABD001 fusion in periplasmic extract; also called Z-ABD
# B2: Z18805 (designed binder)
# chain: B1 chain with V17I, E19A, I20V, H26A, L43F
# notes: as for B1
# B3: Z18777 (designed binder)
# chain: B1 chain with V17I, E19Q, I20V, H26R, K33R
# notes: as for B1
# B4: Z15862 (designed binder)
# chain: B1 chain with E19I, I20A, H26A
# notes: as for B1
# B5: Z18776 (designed binder)
# chain: B1 chain with E19A, K33R
# notes: as for B1
# B6: Z18769 (designed binder)
# chain: B1 chain with I20V, K33R
# notes: as for B1
# B7: Z18814 (designed binder)
# chain: B1 chain with H26A, K33R
# notes: as for B1
# B8: Z18759 (designed binder)
# chain: B1 chain with V17I, E19K, I20V
# notes: as for B1
# B9: Z18766 (designed binder)
# chain: B1 chain with V17T, E19Q, I20V, K33R
# notes: as for B1
# B10: Z18824 (designed binder)
# chain: B1 chain with V17T, E19A, I20V, K33R
# notes: as for B1
# B11: Z18760 (designed binder)
# chain: B1 chain with V17T, E19A, I20V, H26A, K33R
# notes: as for B1
# B12: Z16062 (designed binder)
# chain: B1 chain with V17I, I20A, H26Y, L43F
# notes: as for B1
# B13: Z16208 (designed binder)
# chain: B1 chain with E19K, I20A, H26D, L43F
# notes: as for B1
# B14: Z18808 (designed binder)
# chain: B1 chain with I20V, H26R
# notes: as for B1
# B15: Z18758 (designed binder)
# chain: B1 chain with V17T, E19V, I20V, H26G, K33R, L43F
# notes: as for B1
# B16: Z16606 (designed binder)
# chain: B1 chain with V17I, E19K, I20A, H26D, L43F
# notes: as for B1
# B17: Z18785 (designed binder)
# chain: B1 chain with V17L
# notes: as for B1
# B18: Z18803 (designed binder)
# chain: B1 chain with V17I, E19Q, H26R, K33R
# notes: as for B1
# B19: Z18813 (designed binder)
# chain: B1 chain with H26A, L43F
# notes: as for B1
# B20: Z18811 (designed binder)
# chain: B1 chain with V17L, E19T, I20V
# notes: as for B1
# B21: Z16603 (designed binder)
# chain: B1 chain with E19A, I20A, H26Y, L43F
# notes: as for B1
# B22: Z18806 (designed binder)
# chain: B1 chain with V17T, H26R
# notes: as for B1
# B23: Z15945 (designed binder)
# chain: B1 chain with I20A, H26S
# notes: as for B1
# B24: Z18804 (designed binder)
# chain: B1 chain with V17L, H26R, K33R
# notes: as for B1
# B25: Z18786 (designed binder)
# chain: B1 chain with V17L, I20V, H26R, L43F
# notes: as for B1
# B26: Z16183 (designed binder)
# chain: B1 chain with E19D, I20A, H26Y
# notes: as for B1
# B27: Z18763 (designed binder)
# chain: B1 chain with V17I, E19A, I20V, H26G
# notes: as for B1
# B28: Z15840 (designed binder)
# chain: B1 chain with E19V, I20A, H26A
# notes: as for B1
# B29: Z18820 (designed binder)
# chain: B1 chain with V17L, E19A, H26R
# notes: as for B1
# B30: Z18799 (designed binder)
# chain: B1 chain with E19A, L43F
# notes: as for B1
# B31: Z15975 (designed binder)
# chain: B1 chain with E19T, I20A, H26V
# notes: as for B1
# B32: Z18754 (designed binder)
# chain: B1 chain with H26R, K33R
# notes: as for B1
# B33: Z18770 (designed binder)
# chain: B1 chain with V17T, E19R, I20V, H26S, K33R
# notes: as for B1
# B34: Z18810 (designed binder)
# chain: B1 chain with V17T, I20V, H26G, L43F
# notes: as for B1
# B35: Z18771 (designed binder)
# chain: B1 chain with H26R
# notes: as for B1
# B36: Z18774 (designed binder)
# chain: B1 chain with V17I, E19V, H26R
# notes: as for B1
# B37: Z18757 (designed binder)
# chain: B1 chain with V17I, H26R, L43F
# notes: as for B1
# B38: Z15876 (designed binder)
# chain: B1 chain with V17I, E19A, I20A, H26G, L43F
# notes: as for B1
# B39: Z15934 (designed binder)
# chain: B1 chain with E18T, E19V, I20A, H26A
# notes: as for B1
# B40: Z18790 (designed binder)
# chain: B1 chain with E19A, I20V, H26A, K33R
# notes: as for B1
# B41: Z18819 (designed binder)
# chain: B1 chain with V17T, I20V, H26G, K33R
# notes: as for B1
# B42: Z18825 (designed binder)
# chain: B1 chain with V17T, E19K, I20V, H26G, L43F
# notes: as for B1
# B43: Z16749-ABD (designed binder)
# chain: B1 chain with E19A, I20A, Q21Y, M22Y, F25Y, H26G
# B44: Z17288-ABD (designed binder)
# chain: B1 chain with V17A, E18D, E19A, I20A, Q21Y, M22F, F25Y
# B45: Z17274-ABD (designed binder)
# chain: B1 chain with V17I, E19V, I20A, Q21Y, F25Y
# B46: Z17280-ABD (designed binder)
# chain: B1 chain with E19Q, I20A, Q21Y, M22W, F25Y, H26A
# B47: Z17257-ABD (designed binder)
# chain: B1 chain with I20A, Q21Y, F25Y, H26G
# B48: Z17297-ABD (designed binder)
# chain: B1 chain with V17A, E18Y, E19I, I20A, H26G
# B49: Z17255-ABD (designed binder)
# chain: B1 chain with E19Q, I20A, Q21Y, M22Y, F25Y, H26A
# B50: Z17244-ABD (designed binder)
# chain: B1 chain with E19D, I20A, Q21Y, M22F, F25Y, H26R
# B51: Z17278-ABD (designed binder)
# chain: B1 chain with V17I, E19R, I20A, Q21Y, M22Y, F25Y, H26D
# B52: Z17270-ABD (designed binder)
# chain: B1 chain with V17T, I20A, Q21Y, M22F, F25Y, H26R
# B53: Z17296-ABD (designed binder)
# chain: B1 chain with E19T, I20A, Q21Y, M22F, F25Y, H26A
# B54: Z17269-ABD (designed binder)
# chain: B1 chain with I20A, Q21Y, M22Q
# B55: Z17279-ABD (designed binder)
# chain: B1 chain with E19D, I20A, Q21Y, M22F, F25Y, H26Y
# B56: Z16771-ABD (designed binder)
# chain: B1 chain with E19V, I20A, Q21Y, H26Q
# B57: Z17292-ABD (designed binder)
# chain: B1 chain with E19Y, I20A, Q21Y, M22F, F25Y, H26S
# B58: Z18557-ABD (designed binder)
# chain: B1 chain with V17I, E19A, I20V, H26Y, L43F
# Molecular target: T1, Human IL-1R-I-Fc (Creative BioMart cat. …)
# Assay: ELISA, captured Z-ABD, hIL-1R-I-Fc titrated
row,EC50 [nM],Binder
1,0.24,B1
2,0.27,B2
3,0.26,B3
4,0.25,B4
5,0.22,B5
6,0.29,B6
7,0.27,B7
8,0.24,B8
9,0.33,B9
10,0.28,B10
11,0.17,B11
12,0.21,B12
13,0.22,B13
14,0.4,B14
15,0.24,B15
16,0.23,B16
17,0.25,B17
18,0.25,B18
19,0.2,B19
20,0.28,B20
21,0.22,B21

row,EC50 [nM],Binder
1,0.27,B22
2,0.23,B23
3,0.27,B24
4,0.24,B25
5,0.23,B26
6,0.26,B27
7,0.23,B28
8,0.33,B29
9,0.23,B30
10,0.19,B31
11,0.35,B32
12,0.28,B33
13,0.29,B34
14,0.25,B35
15,0.26,B36
16,0.3,B37
17,0.19,B38
18,0.17,B39
19,0.26,B40
20,0.29,B41
21,0.35,B42

# Molecular target: T2, Human IL-1R-I-Fc (Creative BioMart cat. …)
# Assay: ELISA, hIL-1R-I-Fc titration on Z-ABD
row,EC50 [nM],Binder
1,0.27,B43
2,0.42,B44
3,0.21,B45
4,0.22,B46
5,0.48,B47
6,0.24,B48
7,0.25,B49
8,0.42,B50
9,0.27,B51
10,0.3,B52
11,0.32,B53
12,0.27,B54
13,0.28,B55
14,0.24,B56
15,0.2,B57
16,0.19,B58
